The record followed here is article PMC4336329 (PLoS ONE, 2015).

Each structure is given as a SMILES string. Hit rate of the full screen: of about 310,000 compounds, about 14,000 (4.5%) showed an effect of 50% or more. The effect is printed as a negative number. The list shows a part of the results.
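Also: peak tail current of the secondary pulse compared with the same well before compound.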

For this experiment, the target named is human ether-à-go-go-related gene (hERG) potassium channel (human, UniProt Q12809). The experiment in a line: primary screen, population patch clamp on CHO cells stably expressing hERG.
Sequence of human ether-à-go-go-related gene (hERG) potassium channel (Q12809 whole entry, looked up): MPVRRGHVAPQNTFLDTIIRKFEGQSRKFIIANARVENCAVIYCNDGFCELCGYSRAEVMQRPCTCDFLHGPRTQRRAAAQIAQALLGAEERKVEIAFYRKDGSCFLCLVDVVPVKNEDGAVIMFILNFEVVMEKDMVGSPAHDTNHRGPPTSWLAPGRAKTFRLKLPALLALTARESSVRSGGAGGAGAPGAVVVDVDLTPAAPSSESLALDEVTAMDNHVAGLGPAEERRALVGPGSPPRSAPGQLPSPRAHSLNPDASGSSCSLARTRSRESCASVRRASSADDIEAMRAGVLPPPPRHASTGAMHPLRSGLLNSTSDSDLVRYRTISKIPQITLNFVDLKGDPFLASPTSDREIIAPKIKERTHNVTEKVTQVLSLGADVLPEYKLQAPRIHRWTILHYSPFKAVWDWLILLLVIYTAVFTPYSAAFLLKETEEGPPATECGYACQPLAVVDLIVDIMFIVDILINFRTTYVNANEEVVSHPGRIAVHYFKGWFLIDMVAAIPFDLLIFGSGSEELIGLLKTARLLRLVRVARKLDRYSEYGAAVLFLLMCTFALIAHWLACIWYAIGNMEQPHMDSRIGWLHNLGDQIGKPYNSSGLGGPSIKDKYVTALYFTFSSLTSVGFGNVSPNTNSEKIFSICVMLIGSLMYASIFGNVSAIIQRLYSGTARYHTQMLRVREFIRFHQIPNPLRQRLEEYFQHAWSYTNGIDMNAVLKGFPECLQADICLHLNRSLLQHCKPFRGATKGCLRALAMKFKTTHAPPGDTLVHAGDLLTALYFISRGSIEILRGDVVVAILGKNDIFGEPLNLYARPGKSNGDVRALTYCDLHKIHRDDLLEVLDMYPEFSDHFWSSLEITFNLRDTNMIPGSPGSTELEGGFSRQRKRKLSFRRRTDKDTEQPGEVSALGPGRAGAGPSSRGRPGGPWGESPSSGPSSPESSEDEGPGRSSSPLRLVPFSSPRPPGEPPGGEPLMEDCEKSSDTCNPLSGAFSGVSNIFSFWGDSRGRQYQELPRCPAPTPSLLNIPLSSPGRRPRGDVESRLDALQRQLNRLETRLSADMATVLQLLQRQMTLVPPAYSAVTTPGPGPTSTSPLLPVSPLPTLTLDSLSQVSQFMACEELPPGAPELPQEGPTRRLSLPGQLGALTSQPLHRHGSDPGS
As for `CC(C)C(=O)Nc1c2c(nn1-c1ccc(F)cc1)CS(=O)(=O)C2`, the “hERG current change (%, negative = inhibition) at 10uM” value was 14.7%.
The same measure for `O=C(CCc1nnc2ccc(NCc3ccccc3)nn12)NC1CCCCC1`: 20.6%.
In the case of `Cc1cc(Br)ccc1SCC(=O)OCC(=O)Nc1ccc2[nH]c(=O)[nH]c2c1` it was 12.7%; in that of `O=C(CCSCc1ccccc1F)NCCc1ccccc1`, 2.33%; in that of `Cc1nnc2ccc(Oc3ccc(-c4ccccc4)cc3)nn12`, -5.63%.
For `COCCNC(=O)c1ccc2c(c1)ncn2-c1ccc(F)c(F)c1`, the “hERG current change (%, negative = inhibition) at 10uM” value is reported as -33.2%.
In the case of `Cc1cc(Nc2cccc(F)c2)nc(-c2ccccc2O)n1` it was 11.5%; in that of `COc1ccc(Cc2nc3ccc(C(=O)NCCn4ccnc4C)cc3o2)cc1OC`, -36.5%.
As to `CCN(CC)C(=O)CCS(=O)(=O)c1cccc2nonc12`, the “hERG current change (%, negative = inhibition) at 10uM” value is listed as 8.52%.
In the case of `CC1CCC2(CC1)OCC1(CCC3(COC4(CCC(C)CC4)OC3)C1=O)CO2` (stereo not drawn) it was 12.5%; in that of `Cc1ccc(OCC(=O)NCCCNC(=O)c2cnccn2)cc1C`, 4.76%.
The same measure for `O=C(NC1CCCCC1)C(c1ccc(F)cc1)N(Cc1ccc2c(c1)OCO2)C(=O)c1cnsn1` (stereo not drawn): -8.38%; for `Cc1cc2ncc(S(C)(=O)=O)c(N)n2n1`: 13.5%; for `CN=C(Nc1ccc(Br)cc1)SC1CC(=O)N(c2ccc(OC)cc2)C1=O` (stereo not drawn): 19.5%.
The same measure for `Cc1cc(C)c2c(=O)n(CC(=O)Nc3cccc(F)c3)sc2n1`: -16.1%; for `CCCOc1ccc(-c2nc[nH]c2[N+](=O)[O-])cc1`: 27.3%; for `NC(=O)CC(O)c1cccc(Cl)c1` (stereo not drawn): 9.91%.
As to `Cc1ccc(CNC(=O)C2CCC(=O)N2Cc2ccc(C)cc2)cc1` (stereo not drawn), the “hERG current change (%, negative = inhibition) at 10uM” value is listed as -7.57%.
Take `Cc1cc(C)cc(NC(=O)COc2coc(CN3CCN(c4ccccc4)CC3)cc2=O)c1`: the “hERG current change (%, negative = inhibition) at 10uM” value is recorded as -5.82%.
In the case of `CCN(CC)S(=O)(=O)c1ccc(Cl)c(NC(=O)c2cc(Cl)ccc2Cl)c1` it was 6.24%; in that of `COc1cc(C)c(C(C)C)cc1S(=O)(=O)n1ccnc1`, 5.54%; in that of `CC(=O)Nc1ccc(NC(=O)CSc2ncc(C(=O)Nc3ccc(Cl)cc3)c(=O)n2C)cc1`, -0.502%.
On to `OCn1c2ccccc2c2ccccc21`, for which the “hERG current change (%, negative = inhibition) at 10uM” value is reported as 7.26%.
In the case of `C=CCn1c(C)cc(C(=O)CSc2nnc3c(Cl)cc(Cl)cn23)c1C` it was -21.8%.
On to `CNC(=O)c1ccc(-c2ccc(Cl)c(Cl)c2)s1`, for which the “hERG current change (%, negative = inhibition) at 10uM” value was determined as 11.8%.
In the case of `CCNc1nc(NCC)n2c(SC(C(=O)Nc3cc(Cl)cc(Cl)c3)c3ccccc3)nnc2n1` (stereo not drawn) it was 13.3%.
The same measure for `CCOc1ccccc1NC(=O)CN(Cc1ccccc1)S(C)(=O)=O`: -31.5%; for `COc1ccc(-c2cc(C(=O)Nc3cc(C)on3)c3ccccc3n2)c(OC)c1`: 4.62%; for `Cc1ccc2[nH]c(=O)c(CN(Cc3cccs3)C(=S)NCC3CCCO3)cc2c1` (stereo not drawn): 8.11%.
The same measure for `Cc1noc(C)c1CCC(=O)O`: 20.7%; for `O=C(NC1CC1)C1=C[C@H](C2CC2)C[C@H](OCCCCO)O1`: 16.8%.
Take `O=c1cc(CN2CCOCC2)c2cc(Cl)ccc2o1`: the “hERG current change (%, negative = inhibition) at 10uM” value is on record as -0.546%.
The same measure for `CCN(CC)Cc1c(C(=O)N/N=C/c2c(Cl)cccc2Cl)nnn1-c1nonc1N`: 11.8%; for `COCCN1CCN(C(=O)c2ccc3oc(CCc4ccccc4)nc3c2)CC1`: -30.1%.
With `COCCCNC(=S)NCCNc1nc2cc(C)c(C)cc2cc1C#N`, the “hERG current change (%, negative = inhibition) at 10uM” value is on record as -2.23%.
In the case of `CCCS(=O)(=O)c1c(S(=O)(=O)CCC)c2cc(CC)ccn2c1C(=O)OC` it was -29.2%; in that of `COC(=O)/C(=C/c1c[nH]c2ccccc12)NC(C)=O`, 6.31%.
The same measure for `Cc1ccc(S(=O)(=O)N2CCCCC2)cc1NC(=O)c1cc(=O)[nH]c2ccccc12`: -6.61%; for `O=C(O)c1ncc(-c2ccccc2)cn1`: 2.35%.
Take `Cc1cccc(OCC(=O)Nc2nc3ccc([N+](=O)[O-])cc3s2)c1`: the “hERG current change (%, negative = inhibition) at 10uM” value came out at 15.6%.
Take `COC(=O)c1ccc(C(=O)OC)c(NC(=O)CSCc2ccccc2Br)c1`: the “hERG current change (%, negative = inhibition) at 10uM” value was 3.9%.
Regarding `O=C(Nc1ccc(Cl)c(NC(=O)c2cccs2)c1)c1ccco1`, the “hERG current change (%, negative = inhibition) at 10uM” value is given as -10.6%.
In the case of `NC(=S)NNc1cc(Cl)cc(Cl)c1` it was -9.77%; in that of `OC(C#CCN1CCOCC1)c1cccs1` (stereo not drawn), 11.6%.
In the case of `COc1ccc(CCN2C(=S)N(C)C(=O)C2CC(=O)Nc2ccc(F)cc2)cc1` (stereo not drawn) it was 4.77%.
